# Results taken from the supplement of paper PMC8728848.
# The list shows a part of the results.
# Columns and labels:
# Assay in all cases: glycan array binding signal (z-score within array); higher = stronger binding
# Conditions in all cases: glycan notation: IUPAC condensed, linker removed
# [1] = biological target: Gal3S(b1-4)[Fuc(a1-3)]Glc
# Outline: (§1)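 Glycan array data were curated from 3228 arrays in the Consortium for Functional Glycomics database and kept only where the protein sequence was available. Glycan names were converted to IUPAC-condensed notation, and columns mapping to the same glycan were averaged. The binding signal is a within-array Z-score, averaged across arrays of the same protein sequence at different concentrations or buffers and across linkers. Negative Z-scores can be read as non-binding.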
# [2] = biological target: Gal3S(b1-4)[Fuc(a1-3)]Glc6S
# Outline: as §1
# Gal3S4S(b1-4)GlcNAc = biological target: Gal3S4S(b1-4)GlcNAc
# Outline: as §1
# Gal3S6S(b1-4)GlcNAc = biological target: Gal3S6S(b1-4)GlcNAc
# Outline: as §1
# Gal3S6S(b1-4)GlcNAc6S = biological target: Gal3S6S(b1-4)GlcNAc6S
# Outline: as §1
# Gal4S(b1-4)GlcNAc = biological target: Gal4S(b1-4)GlcNAc
# Outline: as §1
# Gal4S6S(b1-4)GlcNAc = biological target: Gal4S6S(b1-4)GlcNAc
# Outline: as §1
# Gal6S(b1-3)GlcNAc = biological target: Gal6S(b1-3)GlcNAc
# Outline: as §1
# Gal6S(b1-3)GlcNAc6S = biological target: Gal6S(b1-3)GlcNAc6S
# Outline: as §1
# Gal6S(b1-4)Glc = biological target: Gal6S(b1-4)Glc
# Outline: as §1
# Gal6S(b1-4)Glc6S = biological target: Gal6S(b1-4)Glc6S
# Outline: as §1
# Gal6S(b1-4)GlcNAc = biological target: Gal6S(b1-4)GlcNAc
# Outline: as §1
# Gal6S(b1-4)GlcNAc6S = biological target: Gal6S(b1-4)GlcNAc6S
# Outline: as §1
# GalNAc(a1-3)Gal = biological target: GalNAc(a1-3)Gal
# Outline: as §1
# GalNAc(a1-3)GalNAc = biological target: GalNAc(a1-3)GalNAc
# Outline: as §1
# [3] = biological target: GalNAc(a1-3)GalNAc(b1-3)Gal(a1-4)Gal(b1-4)Glc
# Outline: as §1
# [4] = biological target: GalNAc(a1-3)GalNAc(b1-3)Gal(a1-4)Gal(b1-4)GlcNAc
# Outline: as §1
# GalNAc(b1-3)Gal = biological target: GalNAc(b1-3)Gal
# Outline: as §1
# [5] = biological target: GalNAc(b1-3)Gal(a1-4)Gal(b1-4)GlcNAc
# Outline: as §1
# [6] = biological target: GalNAc(b1-3)Gal(a1-4)Gal(b1-4)GlcNAc(b1-3)Gal(b1-4)Glc
# Outline: as §1
# [7] = biological target: GalNAc(b1-3)Gal(a1-6)Gal(b1-4)Glc
# Outline: as §1
# GalNAc(b1-3)GalNAc = biological target: GalNAc(b1-3)GalNAc
# Outline: as §1
# GalNAc(b1-4)Gal(b1-4)Glc = biological target: GalNAc(b1-4)Gal(b1-4)Glc
# Outline: as §1
# GalNAc(b1-4)GlcNAc = biological target: GalNAc(b1-4)GlcNAc
# Outline: as §1
# [8] = biological target: GalNAc(b1-4)GlcNAc(b1-2)Man(a1-3)[GalNAc(b1-4)GlcNAc(b1-2)Man(a1-6)]Man(b1-4)GlcNAc(b1-4)GlcNAc
# Outline: as §1
# GalNAc(b1-6)GalNAc = biological target: GalNAc(b1-6)GalNAc
# Outline: as §1
# Glc(a1-4)Glc = biological target: Glc(a1-4)Glc
# Outline: as §1
# [9] = biological target: Glc(a1-4)Glc(a1-4)Glc(a1-4)Glc
# Outline: as §1
# Glc(a1-6)Glc(a1-6)Glc = biological target: Glc(a1-6)Glc(a1-6)Glc
# Outline: as §1
# [10] = biological target: Glc(a1-6)Glc(a1-6)Glc(a1-6)Glc
# Outline: as §1
# Glc(b1-4)Glc = biological target: Glc(b1-4)Glc
# Outline: as §1
# Glc(b1-6)Glc = biological target: Glc(b1-6)Glc
# Outline: as §1
# GlcA(b1-3)Gal = biological target: GlcA(b1-3)Gal
# Outline: as §1
# GlcA(b1-3)GlcNAc = biological target: GlcA(b1-3)GlcNAc
# Outline: as §1
# GlcA(b1-6)Gal = biological target: GlcA(b1-6)Gal
# Outline: as §1
# [11] = biological target: GlcNAc(a1-3)Gal(b1-4)GlcNAc
# Outline: as §1
# [12] = biological target: GlcNAc(a1-4)Gal(b1-3)GlcNAc
# Outline: as §1
# [13] = biological target: GlcNAc(a1-4)Gal(b1-4)GalNAc
# Outline: as §1
binder,measurement,setting,value
"FedF (Escherichia coli), Q47212 (protein) MRLKYILIIPLLLISLSVFASTLQVDKSVSYDWINSSASSAQVTGTLLGTGKTNTTQMPALYTWQHQIYNVNFIPSSSGTLTCQAGTILVWKNGRETQYALECRVSIHHSSGSINESQWGQQSQVGFGTACGNKKCRFTGFEISLRIPPNAQTYPLSSGDLKGSFSLTNKEVNWSASIYVPAIAKSYRLDTSITLPDTVNLKQNQATPVYYTFSAPSVSNTITGIPNQNDMPSSNVKLTIGPIQSKTTALYVQPDATGSWYDLSKSITMTVVKSSMLNFKGINAKPGNVTLSVPIVFEIQ",glycan array binding signal (z-score),[1],-0.151
same,glycan array binding signal (z-score),[2],0.114
same,glycan array binding signal (z-score),Gal3S4S(b1-4)GlcNAc,-0.156
same,glycan array binding signal (z-score),Gal3S6S(b1-4)GlcNAc,0.537
same,glycan array binding signal (z-score),Gal3S6S(b1-4)GlcNAc6S,1.97
same,glycan array binding signal (z-score),Gal4S(b1-4)GlcNAc,0.01
same,glycan array binding signal (z-score),Gal4S6S(b1-4)GlcNAc,0.385
same,glycan array binding signal (z-score),Gal6S(b1-3)GlcNAc,-0.141
same,glycan array binding signal (z-score),Gal6S(b1-3)GlcNAc6S,-0.166
same,glycan array binding signal (z-score),Gal6S(b1-4)Glc,0.175
same,glycan array binding signal (z-score),Gal6S(b1-4)Glc6S,0.578
same,glycan array binding signal (z-score),Gal6S(b1-4)GlcNAc,0.402
same,glycan array binding signal (z-score),Gal6S(b1-4)GlcNAc6S,-0.171
same,glycan array binding signal (z-score),GalNAc(a1-3)Gal,0.327
same,glycan array binding signal (z-score),GalNAc(a1-3)GalNAc,0.597
same,glycan array binding signal (z-score),[3],-0.192
same,glycan array binding signal (z-score),[4],0.086
same,glycan array binding signal (z-score),GalNAc(b1-3)Gal,0.035
same,glycan array binding signal (z-score),[5],-0.261
same,glycan array binding signal (z-score),[6],-0.156
same,glycan array binding signal (z-score),[7],-0.124
same,glycan array binding signal (z-score),GalNAc(b1-3)GalNAc,-0.237
same,glycan array binding signal (z-score),GalNAc(b1-4)Gal(b1-4)Glc,-0.151
same,glycan array binding signal (z-score),GalNAc(b1-4)GlcNAc,-0.232
same,glycan array binding signal (z-score),[8],-0.129
same,glycan array binding signal (z-score),GalNAc(b1-6)GalNAc,-0.207
same,glycan array binding signal (z-score),Glc(a1-4)Glc,-0.113
same,glycan array binding signal (z-score),[9],-0.139
same,glycan array binding signal (z-score),Glc(a1-6)Glc(a1-6)Glc,-0.456
same,glycan array binding signal (z-score),[10],0.629
same,glycan array binding signal (z-score),Glc(b1-4)Glc,-0.363
same,glycan array binding signal (z-score),Glc(b1-6)Glc,-0.196
same,glycan array binding signal (z-score),GlcA(b1-3)Gal,0.136
same,glycan array binding signal (z-score),GlcA(b1-3)GlcNAc,-0.192
same,glycan array binding signal (z-score),GlcA(b1-6)Gal,-0.02
same,glycan array binding signal (z-score),[11],-0.469
same,glycan array binding signal (z-score),[12],-0.084
same,glycan array binding signal (z-score),[13],-0.051
